Consider six cell lines from the supplement of paper PMC4967469.

The IC50 comes from the fitted curve, where viability falls to half of the control; where the fit passes the top or lowest dose, that dose stands as a limit. The AUC spans the tested range (256-fold, ending at the top dose) of the same fit; the more sensitive the line, the further below 1. For some assays here: A top dose marked as inferred was derived from the fitted curves, not read from the paper.

What all share (test): Viability of human cancer cell lines after 72 h of drug (GDSC screen)
Compound in assay [1]: C=CC(=O)Nc1cc(-n2c(=O)ccc3cnc4ccc(-c5ccc(NS(C)(=O)=O)cc5)cc4c32)ccc1C [BMX-IN-1 (QL-XII-61)]
Conditions: top dose 10 µM; top dose inferred. Here is the method:
(§1)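 Human cancer cell lines in 384-well plates, medium with 10% serum, drug for 72 h over a 256-fold dose range (nine 2-fold or five 4-fold steps up to the top dose). Adherent lines were fixed and stained with the nucleic acid dye Syto60, suspension lines read with resazurin; signal relative to control wells, capped at 0 and 100%. One two-parameter sigmoid per drug and line, fitted in a mixed model over all curves with the slope shared within a line.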

Compound in assay [2]: C=CCNC1=C2C[C@@H](C)C[C@H](OC)[C@H](O)[C@@H](C)/C=C(\C)[C@H](OC(N)=O)[C@@H](OC)/C=C\C=C(/C)C(=O)NC(=CC1=O)C2=O [17-AAG]
Particulars: top dose 1 µM. The method, then: as §1

Compound in assay [3]: CCc1cc(-c2n[nH]c(C)c2-c2ccc3c(c2)OCCO3)c(O)cc1O [CCT018159]
Conditions: top dose 10 µM; top dose inferred. Here is the method: as §1

Compound in assay [4]: CN(C)Cc1cccc(N=C(c2ccccc2)c2c(O)[nH]c3cc(C(=O)N(C)C)ccc23)c1 [BIX02189]
Particulars: top dose 20 µM; top dose inferred. Here is the method:
as §1

Compound in assay [5]: COC(=O)CNC(=O)C(=O)OC [Dimethyloxalylglycine]
Conditions: top dose 4000 µM; top dose inferred. The method, then: as §1

Compound in assay [6]: COc1cccc2c1C(=O)c1c(O)c3c(c(O)c1C2=O)C[C@@](O)(C(=O)CO)C[C@@H]3O[C@H]1C[C@H](N)[C@H](O)[C@H](C)O1 [Doxorubicin]
Particulars: top dose 1.024 µM. Here is the method:
as §1

Compound in assay [7]: COc1cccc2cc(-c3nc([C@H]4CC[C@H](C(=O)O)CC4)n4ncnc(N)c34)[nH]c12 [OSI-027]
Particulars: top dose 20 µM. Here is the method: as §1

Compound in assay [8]: CS(=O)(=O)c1ccc(C(=O)Nc2ccc(Cl)c(-c3ccccn3)c2)c(Cl)c1 [Vismodegib]
Particulars: top dose 10 µM; top dose inferred. The method, then:
as §1

Compound in assay [9]: Cc1cnc(Nc2ccc(F)cc2Cl)nc1-c1c[nH]c(C(=O)N[C@H](CO)c2cccc(Cl)c2)c1 [VX-11e]
Particulars: top dose 5.12 µM; top dose inferred. Here is the method:
as §1

Compound in assay [10]: Cc1cnc(Nc2ccc(OCCN3CCCC3)cc2)nc1Nc1cccc(S(=O)(=O)NC(C)(C)C)c1 [TG101348]
Particulars: top dose 10.24 µM. The method, then: as §1

Compound in assay [11]: O=C(c1ccc(C(=O)N2CCC(N3CCCC3)CC2)c(Nc2ccccc2)c1)N1CCC(N2CCCC2)CC1 [UNC1215]
Particulars: top dose 1 µM; top dose inferred. The method, then: as §1

By IC50 is commonly meant the concentration that gives 50% inhibition. Consider DG-75 (Burkitt lymphoma, suspension), for which the AUC in assay [1] is 0.919; in [2] it was 0.809; in [3] it was 0.826; in assay [4], 0.943; in assay [5], 0.632; in assay [6], 0.852. Further, the AUC was found to be 0.735 in assay [7]; 0.928 in assay [8]; 0.982 in assay [9]; 0.863 in assay [10]; 0.984 in assay [11]. Also, the concentration for half-maximal inhibition (IC50) is more than 10 µM in assay [1]; 0.529 µM in assay [2]; 6.14 µM in assay [3]; more than 20 µM in assay [4]; 581 µM in assay [5]; 0.808 µM in [6]. Besides, the IC50 is 5.92 µM in assay [7]; more than 10 µM in [8]; more than 5.12 µM in assay [9]; 9.02 µM in assay [10]; more than 1 µM in [11].
For the cell line RCM-1 (large intestine, adherent), the AUC turned out to be 0.983 in [1]; 0.843 in [2]; 0.927 in [3]; 0.976 in assay [4]; 0.72 in assay [5]; 0.914 in assay [6]. For the same cell line, the AUC in assay [7] is 0.939; in assay [8], 0.976; in assay [9], 0.852; in [10], 0.967; in [11], 0.983. Besides, the half-maximal inhibitory concentration (IC50) in assay [1] was more than 10 µM; in [2], 0.95 µM; in [3], more than 10 µM; in assay [4] it was more than 20 µM; in [5], 1220 µM; in [6], more than 1.02 µM. For the same cell line, the half-inhibitory concentration (IC50) in assay [7] was more than 20 µM; in [8], more than 10 µM; in [9] it was more than 5.12 µM; in assay [10], more than 10.2 µM; in [11] it was more than 1 µM.
For the cell line 451Lu (melanoma, adherent), the AUC in assay [1] amounted to 0.975; in [2], 0.496; in assay [3] it was 0.852; in assay [4], 0.981; in [5] it was 0.733; in [6], 0.615. For the same cell line, the AUC came to 0.65 in assay [7]; 0.944 in assay [8]; 0.761 in assay [9]; 0.973 in [10]; 0.988 in [11]. The IC50 is more than 10 µM in assay [1]; 0.0611 µM in assay [2]; 7.23 µM in [3]; more than 20 µM in [4]; 1120 µM in assay [5]; 0.131 µM in [6]. In addition, the IC50 in [7] is 3.18 µM; in assay [8], more than 10 µM; in assay [9], 1.74 µM; in [10], more than 10.2 µM; in [11], more than 1 µM.
Take CAL-78 (chondrosarcoma, adherent): the AUC in [1] was determined as 0.981; in assay [2], 0.851; in [3] it was 0.943; in [4] it was 0.948; in assay [5], 0.824; in [6], 0.901. For the same cell line, the AUC in assay [7] is 0.986; in assay [8], 0.986; in assay [9] it was 0.985; in assay [10], 0.911; in assay [11], 0.985. Moreover, the IC50 in assay [1] was more than 10 µM; in assay [2], 0.943 µM; in assay [3], more than 10 µM; in assay [4], more than 20 µM; in [5] it was 2840 µM; in [6] it was more than 1.02 µM. Moreover, the IC50 in [7] was more than 20 µM; in assay [8], more than 10 µM; in assay [9], more than 5.12 µM; in assay [10] it was more than 10.2 µM; in assay [11] it was more than 1 µM.
Take A253 (head and neck, adherent): the AUC in [1] was 0.988; in [2], 0.761; in assay [3], 0.957; in assay [4] it was 0.985; in assay [5], 0.489; in assay [6] it was 0.446. Besides, the AUC in assay [7] was found to be 0.679; in assay [8], 0.965; in [9] it was 0.985; in assay [10] it was 0.959; in [11] it was 0.988. The IC50 is more than 10 µM in [1]; 0.345 µM in assay [2]; more than 10 µM in assay [3]; more than 20 µM in assay [4]; 0.0457 µM in assay [6]; 3.9 µM in assay [7]. The IC50 in assay [8] is more than 10 µM; in [9], more than 5.12 µM; in assay [10], more than 10.2 µM; in assay [11], more than 1 µM.
With OCUB-M (breast, adherent), the AUC in [1] is 0.75; in [2], 0.959; in [3], 0.837; in [4], 0.968; in assay [5] it was 0.965; in assay [6], 0.215. For the same cell line, the AUC in assay [7] was 0.076; in assay [8] it was 0.99; in assay [9], 0.949; in [10] it was 0.844; in [11], 0.987. For the same cell line, the IC50 in assay [1] is 2.89 µM; in assay [2] it was more than 1 µM; in [3], 5.44 µM; in [4], more than 20 µM; in assay [5], more than 4000 µM; in assay [6], 0.0109 µM. The IC50 is less than 0.0781 µM in assay [7]; more than 10 µM in assay [8]; more than 5.12 µM in [9]; 5.92 µM in assay [10]; more than 1 µM in assay [11].
